# Experimental data from the supplement of paper PMC11417369.
# Some of the results follow.
# Tested on: PfSIP2 AP2 domain 1 (GST-tagged)
# Test: gcPBM binding intensity (ln(normalized median fluorescence intensity)); higher = stronger DNA binding
# Outline: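 GST-tagged P. falciparum DNA-binding domains, expressed in E. coli (about 25 μg on average), were applied for 1 h to an Agilent 4 × 180k array of primer-extended double-stranded 36-bp intergenic genomic probes plus negative controls. The binding buffer was 1× PBS with 1% milk, 0.2 mg/ml BSA, 0.5% salmon testes DNA and 0.03% Triton X-100. Bound protein was detected with Alexa488 anti-GST antibody and scanned at 488 nm. Binding intensity is the highest Masliner-normalised natural-log median intensity across replicate spots of either probe orientation.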
row,Sequence,gcPBM binding intensity (ln)
1,ATATGTATTGGAGTGTGTACATATATATATATTTAT [XGTACX_site5633],7.34
2,TTAATAATGTTTTATTGTACTTTTTTGTGGGTTTAT [XGTACX_site5670],7
3,GTGCTACATCATATGTGTACATATACCAAACTGTAT [XGTACX_site8233],7.52
4,ATATACATTCAAGGCTGTACACTATATTTTTTTTTT [XGTACX_site6514],7.03
5,TTTGTGTAAAGAATCAGTACATATAATATATATATA [XGTACX_site1972],8.28
6,TTTGTTGACAGACACACACACATACATATATATATA [CACACA_site2288],8.9
7,TATAATAATATAATGGTGCATGTATATAACCATATA,10.7
8,AAATAAATATAAATAAATAAATAAATAAATATATAT [CACACA_negctrl_site827],6.93
9,TTAATAATTCTTAAAAGTACATAACTTTTTTTTTTT [XGTACX_site751],6.85
10,GCTCTTTTGTTATGGTGTACCCTCCATGTAACATAA [XGTACX_site91],7.45
11,TCTTACGGATTCATTGTGCACATATATATATATATA [GTGCAC_site9896],9.46
12,TTTTAAAAACGGCATGCATGTAATACATGGAAGGAA [TGCATGCA_site480],7.46
13,TATATATAATTCATACATTTTAAATATATTTATTTA [CACACA_negctrl_site840],7.01
14,TTTAAAAAAATTCATGCACACGAAATAAAAAGCACC [CACACA_site8214],8.86
15,TCTTTTATGCACATTGAGTAAACAACATATTTTTAA [TGCATGCA_negctrl_site561],7.39
16,TTTTTTATTAAAAGTAGTACACATGAAAAAAAAAAA [XGTACX_site5524],7.66
17,ATTTTTATAGAAATATGTACACAATATGTATATATT [XGTACX_site7993],6.95
18,TTAATATAGATATAACCACACACATACATCTAATTC [CACACA_site8519],6.92
19,TAGAAGTACATATATGCATGTTAATTTTAAAGGAGG [TGCATGCA_site538],7.14
20,ATATATATATAGTGTTGTACATTTAAAAATAATATA [XGTACX_site2627],9.21
21,ATTAAAAATATTAGTTGTACTTTATATTTTCATATA [XGTACX_site3614],6.87
22,AATCAAAATAATTTAACACACAATTTTAATACTGTT [CACACA_site2375],6.82

row,Sequence,gcPBM binding intensity (ln)
1,AAATTCCATGAAAAAAGTACTAATTAATACAATATA [XGTACX_site2877],6.96
2,TTTAAGAATTAACGGGGTACAATTCTTAAATATATA [XGTACX_site669],6.88
3,ATGTGATAGAAGTACACACACATATGTATTTATAAT [CACACA_site5075],7.02
4,TGTTTTATTTTTTTTGTGCACATACCTTTAGCATCA [GTGCAC_site9812],8.95
5,TAATTATAATAAATATTCATATGTTCAAATATATAT [CACACA_negctrl_site151],6.96
6,TATATATTTTTTTCAAGTACACATTACAGTTACATA [XGTACX_site2713],7.01
7,ATTCGATGTTTTAAATGTACACAAATTGAAGGAATA [XGTACX_site409],7.6
8,ATGTTTTCTCTTTCGGTGCATTGTTTTCTATACTTT [GTGCAC_site9483],9.6
9,TTTATATAATTTTAATGTACATATATATATATAAAT [XGTACX_site4381],7.43
10,TTTTCTTACATGAGTGTACACACTTTTTTTCAGAAA [CACACA_site70],7.18
11,TTCTTCACATACACTTCAAAATTTGATAAAACATTA [CACACA_negctrl_site472],7.68
12,TAATAAATAAGATTCACACATATTTAAATGTTATGC [CACACA_site5275],6.65
13,TATCTATAATATTATACACACATATATGCATAATAT [CACACA_site6175],7.34
14,TTATTTGAATAATGTTTGCACTTAGAGTATTTTATA,7.48
15,ATATATCATAAATAAATGAAAATATTTTCTATGTGT [CACACA_negctrl_site689],7.07
16,GTATATAATTTTTTTTTTTTTTTCATTCTTTTCCTT [CACACA_negctrl_site1780],6.89
17,ATGAATTGACCATATTGTACATATTTAGGACTTACC [XGTACX_site8072],7.16
18,AAATATATGAAATATACACACTTCTTTGGTATTATT [CACACA_site4414],6.69
19,CAGAAATATTAATGCTGTACGGAATACATATATTTT [XGTACX_site539],6.83
20,ATTTTAATGGGACATGCATGGGACAAACTACAAATT [TGCATGCA_site853],7.08
21,AGAATATTTATATGATGTACTTATATATATATATAT [XGTACX_site3021],9.17
22,TATATATTAAAACACACACACATATATATATATATA [CACACA_site3787],9.06

row,Sequence,gcPBM binding intensity (ln)
1,TTTTTTCTTTTCTTTTTATTTTATTTTGTTTTATTT [CACACA_negctrl_site799],6.69
2,AATAAAAACTACATGTGTACATAATAAATACATATA [XGTACX_site755],7.09
3,TAAAAATATTTAAACTGTACTATTTTATGTTAAATG [XGTACX_site6620],7
4,ATAATCCAAAAAAATCAAATAAAATAAAATAAAATA [CACACA_negctrl_site449],6.75
5,TGAACCAGATTTAGAAGTACTAAATATTACATACAT [XGTACX_site2437],6.97
6,TGTTGCAAAACAAAAAAAAAAAAAAAAAATAATAAT [CACACA_negctrl_site1642],6.76
7,TATATAAATATTCGTAGTACAATACAATTATAAGTA [XGTACX_site3068],6.99
8,TTTATAATTTTAAAATGTACAAGGAGGAAAAATTCT [XGTACX_site422],7.09
9,TTATATTTTATATTTACACACATTTATATTTATAAA [CACACA_site203],6.94
10,ATAAACATCGGTAGTACACACATTCATGTACTTGAT [CACACA_site3037],7.32
11,AATTTGTAAAATAAGGTGCGTATAAAAAATTATATT [GTGCAC_site9676],9.96
12,ATTTAATAAAAAAAAAAAATATTGTAGAATATGATG [GTGCAC_negctrl_site195],6.82
13,CAAATGGTAAATGAAAGTACAAATTGTTTTGATTAA [XGTACX_site1536],6.74
14,ATATACATATTCTTGTGTACATAAAAATTTATATAT [XGTACX_site8726],7.16
15,ATATAAATCATTGGTTGTACATATAATATTTTATAA [XGTACX_site925],7.08
16,TATATATCTATATATTGTACATATGTTTGTATGTGT [XGTACX_site7420],7.26
17,TATTTTTACCCATAAAGTACACATAAATATAAAATA [XGTACX_site177],7.36
18,TAATATTTCTTATTTTATATTTGTATATGAATGGAT [XGTACX_negctrl_site278],6.88
19,GCTCAATGTTTTACATGTACATATATATATATATAT [XGTACX_site8210],9.11
20,TATATATTAGAAGATAGTACATATATATTTATTAAT [XGTACX_site1011],6.99
21,TGGTGATCAAAATATACATGCATATGTTCTGTTATT [TGCATGCA_site614],7.06
22,TATGATATCTATAATACACACATATACATAAGATCT [CACACA_site6652],7.03

row,Sequence,gcPBM binding intensity (ln)
1,TTATATAAAACATTAACACACAAAGAAAAAAAATTA [CACACA_site1793],6.88
2,TTAATATAACTTTTTGCACACTTAATTTTTTTTTTT [CACACA_site3364],7.03
3,AAAACAAATGCTTAAAGTACTTATTATTTTTCTTTT [XGTACX_site6324],7
4,TTCCTACTATTCAAACGTACAAAATATTTAAATAAT [XGTACX_site700],7.41
5,TATTATAAAACATTATGTACATATTCTGAAAAATAG [XGTACX_site6577],7.07
6,TATTTCTTATTTATTTTTTAAGGAAATTAAAGATTT [CACACA_negctrl_site258],6.68
7,CAAAATAAAAAATTCACACACATATATATATATATA [CACACA_site2088],9.29
8,ATAATATAATATAAAACACACATATGTACCTTCTAA [CACACA_site2761],7.04
9,CAAGTTCAAAATACAAGGAAGAAACAAAACTTGGCG [GTGCAC_negctrl_site600],6.9
10,TAAAAATATCTGTATACACACATATATATATATATA [CACACA_site6042],9.59
11,AAAAAAAAAAAAAAAAGTACAAATCTTTATTTATTA [XGTACX_site3305],7.36
12,TATTTAGAAATAAATACACACATACATTTTTGTATA [CACACA_site4557],6.74
13,GTTTATTTTTTCATTTGTACACATAAATAAATATAT [XGTACX_site7752],7.47
14,GGTATATATTCTATCACACATATTTCCATGAAAATA [CACACA_site4728],7.29
15,TTAATTATATTATGCACACACAATTGGAAAAAAAAT [CACACA_site1958],8.42
16,ACGTTAGGCTTATTTGCACACTTGTATTAAAATTTT [CACACA_site4854],7.27
17,AAAAATATGCTTCCATGTACTTAAAAAAAAAATTTA [XGTACX_site3617],6.81
18,TCAACTTGATTTATATGTACACATATAAGTAATTAT [XGTACX_site1798],7.13
19,TATACAAACTATGATGCACACATATATATATGTATA [CACACA_site8327],7.48
20,AAAAAAAAGAAAAAAACACACAATGGAAAAAATGTA [CACACA_site3675],6.77
21,TTACATATATTGGGGTGTACATATATTTTCCTTCAC [XGTACX_site6224],7.48
22,AAAAAAAAAAAAAAAAGTACACATAATTGTATATGT [XGTACX_site6339],7.34
